# Assay results reported in ChEMBL document CHEMBL1201862, “PubChem BioAssay data set” (2004).
# Tested on: NCI-H322M
# Assay: inhibition of tumour cell growth, NCI panel, 48 h
row,Structure (SMILES),GI50
1,S=C1SCN(C2CCCCCCCCCCC2)CN1C1CCCCCCCCCCC1,inactive: > 100 µM
2,c1ccc2c(c1)CCc1c(-c3ccncc3)n[nH]c1-2,inactive: 39.4 µM
3,C=C1CC2(OC1=O)c1ccccc1CCc1ccccc12,inactive: 16.6 µM
4,O=C(O)C(=Cc1ccnc2ccccc12)C(=O)O,inactive: > 100 µM
5,O=C1c2cc(Cl)ccc2N=C(NC2CCCC2)C2CSCN12 (stereo not given),inactive: > 100 µM
6,Cc1ccccc1-c1c(N)nc(NC#N)nc1C(=O)Nc1ccccc1,inactive: > 100 µM
7,C/C(=N/NC(=O)C[n+]1ccccc1)C(CN(CC(C)C)CC(C)C)C(=O)Nc1ccc(C)cc1C (stereo not given),inactive: > 100 µM
8,CSc1nc(CO)c(CO)n1C,inactive: > 100 µM
9,CCn1nc2c3c(ncn3C(C)(C)O2)c1=O,inactive: > 100 µM
10,Cc1ccc(Oc2ccc(C)cc2N)cc1,inactive: > 100 µM
11,CN(C)c1ccc(/C=C(/C(=O)O)c2csc(-c3nc(/C(=C\c4ccc(N(C)C)cc4)C(=O)O)cs3)n2)cc1,inactive: > 100 µM
12,N=C(NC(=S)N1CCCCC1)N1CCCCC1,inactive: > 100 µM
13,Cc1cc2nc3c(C(OC4OC(CO)C(O)C(O)C4O)C(O)CO)nn(-c4ccccc4)c3nc2cc1C (stereo not given),inactive: > 100 µM
14,N=c1oc2ccccc2cc1C(=O)Nc1ccccn1,inactive: 50.1 µM
15,CCOC(=N)n1c(=O)n(C2=NCCN2)c2ccccc21,inactive: > 100 µM
16,CC1(C)OCN(c2ccc(S(N)(=O)=O)cc2)Cn2c1nc1ccccc12,inactive: > 100 µM
17,O=C(CC(=O)Nc1ccccc1)NNC(Sc1ccccc1)c1cc(/N=N/c2ccc(Br)cc2)ccc1O (stereo not given),inactive: 1.28 µM
18,Cc1cc(-c2nc3ccc(F)cc3s2)ccc1NC(=O)C(N)CCCCN (stereo not given),inactive: 6.58 µM
19,Cc1c2c(c(C)n1-c1ccccc1)C(=O)N(CCCCN1CCN(c3ccccc3)CC1)C2=O,inactive: 21.1 µM
20,CCOC(=O)c1cn(CC)c2ccc3ccsc3c2c1=O,inactive: > 100 µM
21,Nc1ccc(Oc2ccc(C34CC5CC(C3)CC(c3ccc(Oc6ccc(N)cc6)cc3)(C5)C4)cc2)cc1,inactive: 3.24 µM
22,COC(=O)[C@@H](NC(=O)N(CCC#N)CCCN(C(=O)N[C@H](Cc1ccccc1)C(=O)OC)c1ccccc1)C(C)C,inactive: > 100 µM
23,S=C1NC(c2ccccc2)=NC(Cc2ccccc2)(c2ccccc2)N1c1ccccc1 (stereo not given),inactive: > 100 µM

row,Structure (SMILES),GI50
1,O=C1/C(=C\c2cccc(Oc3ccccc3)c2)SC(c2ccccc2)N1c1cccc(Cl)c1 (stereo not given),inactive: > 100 µM
2,O=C1Nc2c(Cl)cc(Cl)cc2/C1=N/N=C/c1ccccc1O,inactive: 19 µM
3,CC(=O)N1CCN(CCCCN2c3ccccc3Sc3cc(N=[N+]=[N-])ccc32)CC1,inactive: 17.3 µM
4,O=C(NOC(=O)c1ccc([N+](=O)[O-])cc1)c1ccc(Cl)cc1,inactive: > 100 µM
5,Cc1cc2c3ccccc3n3c2c2c1OC1(C)CCC(C2C1)C3(C)C (stereo not given),inactive: > 25 µM
6,CCNc1cnc2c(n1)c(=O)n(C)c(=O)n2C,inactive: > 100 µM
7,Cc1ccc(S(=O)(=O)C2=Cc3ccccc3C2(O)c2ccccc2)cc1 (stereo not given),inactive: 24 µM
8,COc1cc2c(cc1OC)C(=O)/C(=C/c1ccccc1)C2,inactive: > 90.8 µM
9,Nc1nncc2[nH]cnc12,inactive: 73.6 µM
10,Cn1c(=O)c2c(-c3ccccc3)onc2n(C)c1=O,inactive: 53.1 µM
11,CC1C=CC(C(N)C(=O)O)O1 (stereo not given),inactive: > 100 µM
12,O=c1nc2sc3ccc4ccccc4c3n2nc1-c1ccccc1,inactive: 34.3 µM
13,CC(C)=CCSC1CC2C(CC1(C)O)C2(C)C (stereo not given),inactive: 15.7 µM and inactive: 15.6 µM
14,COC(=O)c1c(O)ccc2c1c1c(n2Cc2ccccc2)C(=O)c2ccccc2C1,inactive: > 100 µM
15,CCCCCCCCCCCCc1ccsc1-c1ccc(-c2ccc(-c3sccc3CCCCCCCCCCCC)s2)s1,inactive: > 100 µM
16,C=C1C(=O)OC2C=C(C)CC3C=C(CCC=C(C)CCC12)C(=O)O3 (stereo not given),inactive: 59.8 µM
17,CO/N=C1\CC(NC(=O)CNC(=O)OC(C)(C)C)c2ccsc21 (stereo not given),inactive: > 100 µM
18,Oc1c2cccc1Cc1cccc3c1OCCOCCOCCOCCOc1c(cccc1Cc1cccc(c1O)C3)C2,inactive: > 100 µM
19,CCCCCC(C)SC1(C(=O)OC)CC(OC(C)=O)C(NC(C)=O)C([C@H](OC(C)=O)[C@@H](COC(C)=O)OC(C)=O)O1 (stereo not given in full),inactive: > 100 µM
20,CNC(=S)N1CCN(C(C)=O)C1=S,inactive: 44.5 µM
21,CC(=O)OC[C@]1(C(=O)C(O)c2ccoc2)[C@H](C)CC[C@@]23COC(=O)C2=CCC[C@@H]31 (stereo not given in full),inactive: > 10 µM
22,CC1=NN(c2nc(N)nc(-c3sccc3N)n2)C(C)(C)C1,inactive: > 100 µM

# “And” between values parts separate entries of the source, which are not always exact repeats. Equal entries are not always repeated.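 Each compound was tested at five concentrations against cells in 96-well plates for 48 hours. At the GI50, growth is halved.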 The source made the active and inactive calls. Cut-off read from the data, not from the text of the source: active = GI50 up to about 1.1 µM and inactive = higher.
